From PubChem BioAssay (NCI)
Several values for one entry are separate records, joined by “and”; a condition that tells them apart may be missing. Equal entries are not always repeated.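 Following 48 hours of exposure in 96-well plates, responses at five concentrations were used to interpolate endpoints linearly. Here, GI50 denotes the concentration required for 50% inhibition of growth. TGI marks complete inhibition of growth.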

Tested on: NCI-H322M lung
Assay: NCI-60 cell line screen, 48 h

Row | SMILES | TGI | GI50
1 | CC(C)CCCC(C)[C@H]1CCC2[C@@H]3CCC4Cc5nc6c(nc5C[C@]4(C)C3CC[C@@]21C)CC1CC[C@@H]2C(CC[C@@]3(C)C2CC[C@@H]3C(C)CCCC(C)C)[C@@]1(C)C6 (some centres not stated) | > 100 µM | –
2 | COc1ccc2c(c1)C(=O)c1ccc(OC)cc1C2=S | > 100 µM | –
3 | Cc1ccc([S@](=O)c2occc2C=O)cc1 | 29.5 µM | –
4 | C=C1C(O)C2C(=C(CC)C13CC3)C(=O)C(C)(C)C2OC (configuration not stated) | > 100 µM | > 100 µM
5 | O=C1Nc2ccc(Br)cc2C1=Nc1cccnc1 | > 100 µM | –
6 | CC1C(=O)N(c2ccccc2)NC12CCCc1ccccc12 (configuration not stated) | > 100 µM | –
7 | CC(=O)OCC1OC(SC2=N/C(=C\c3ccc(Br)s3)C(=O)N2CN2CCOCC2)C(OC(C)=O)C(OC(C)=O)C1OC(C)=O (configuration not stated) | 35.2 µM | –
8 | O=C1CCCCCCCCCCC1CN1CCCC1 (configuration not stated) | > 100 µM | –
9 | CC(NC(=O)C(NC(=O)CNC(=O)OC(C)(C)C)C(C)C)C(=O)Oc1c(Cl)c(Cl)c(Cl)c(Cl)c1Cl (configuration not stated) | 62.8 µM | –
10 | COC(=O)C1(Cc2ccc3c(c2)CCC3)Cc2ccccc2C1O (configuration not stated) | 36.9 µM | –
11 | CC(CN(C)C)/C(=N\Nc1ccccc1)c1ccccc1 (configuration not stated) | > 100 µM | –
12 | CCOP(=O)(/C=C\n1cc(C)c(=O)[nH]c1=O)OCC | > 100 µM | –
13 | ClCCCc1ccccc1C1=NCCc2ccccc21 | > 100 µM | –
14 | OCC(O)C(O)C(O)C(O)c1nc2ccc(Cl)cc2[nH]1 (configuration not stated) | > 100 µM | –
15 | COc1c(O)c2c3c(cc(C)cc3c1C(C)C)OC2 | > 100 µM | –
16 | COc1cccc(CCN2CCN(CCCc3ccccc3)CC2)c1 | > 100 µM | –
17 | O=C(/C=C/Sc1cc(C(F)(F)F)cc(C(F)(F)F)c1)c1ccc(Cl)cc1 | 37.4 µM | 19.9 µM
18 | O=c1cc(N2CCCC2)[nH]c(=O)n1Cc1ccccc1 | > 100 µM | –
19 | Cc1cn(C2CC3C(COCN3O)O2)c(=O)[nH]c1=O (configuration not stated) | > 100 µM | –
20 | O=C(c1ccc(Cl)cc1Cl)C1[C@H]2C(=O)N(c3ccc(Cc4ccc(N5C(=O)[C@@H]6ON(c7ccccc7)C(C(=O)c7ccc(Cl)cc7Cl)[C@@H]6C5=O)cc4)cc3)C(=O)[C@H]2ON1c1ccccc1 (some centres not stated) | > 50 µM | –
21 | Cc1ccc2c(=O)cc(-c3ccc(Cl)s3)[nH]c2n1 | > 100 µM | –
22 | C=CCN=C(N/N=C/c1ccc([N+](=O)[O-])o1)NS(=O)(=O)c1cc(C(=O)Nc2ccc(Cl)cc2)c(Cl)cc1SC | > 100 µM | > 100 µM
23 | Nc1ncnc2c1N=C(c1ccc3c(c1)OCO3)CC(c1ccc([N+](=O)[O-])cc1)N2 (configuration not stated) | > 100 µM | > 100 µM

Row | SMILES | TGI | GI50
24 | OCCO/N=C1\C(c2c(O)[nH]c3ccccc23)=Nc2ccccc21 | > 100 µM | –
25 | COc1ccc(C2=Nc3cc(C)c(C)cc3NC(c3ccccc3)C2)cc1 (configuration not stated) | > 100 µM | –
26 | CCNC(=S)N=Nc1c(O)[nH]c2ccc([N+](=O)[O-])cc12 | > 100 µM | –
27 | CSc1nnc(CCC(=O)Nc2c(C)cccc2C)o1 | > 100 µM | –
28 | CC1(C)CC(O)C(C)(C)[C@@H](O)C1 (some centres not stated) | > 100 µM | –
29 | COc1ccc2c(c1)NC1=C(C(=O)OC1)C2c1cc(OC)c2c(c1)OCO2 (configuration not stated) | > 100 µM | 0.0583 µM
30 | O=C(O)CC[C@H](NC(=O)c1ccc(-n2nc3ccc(O)cc3nc2=O)cc1)C(=O)O | > 100 µM | –
31 | O=C1C(c2ccccc2)=C(O)c2cccc3cccc1c23 | > 100 µM | –
32 | N#C/C(=C\c1ccsc1)c1nc2ccccc2o1 | > 100 µM | 79.9 µM
33 | NC(=O)c1cccc([N+](=O)[O-])c1 | > 100 µM | –
34 | COc1ccc(C/C(C)=C(/c2ccc(OCCN3CCCCC3)cc2)c2ccc(OC(=O)NCc3ccccc3)cc2)cc1 | 0.83 µM | 0.43 µM
35 | CSCCC(N)C(=O)NCCNc1ccc(NCCNC(=O)C(N)CCSC)c2c1C(=O)c1ccccc1C2=O (configuration not stated) | 3.61 µM | –
36 | Cc1cccc(Nc2nn3c(=O)c4c5c(sc4nc3s2)CCCC5)c1 | > 100 µM | –
37 | CCCCCCC[CH2][Sn]([CH2]CCCCCCC)([O]c1cccc2cccnc12)[O]c1cccc2cccnc12 | 7.97 µM | 2.98 µM
38 | CC(=C(c1ccccc1)c1ccccc1)N1C(=O)CC(=O)N1C | > 100 µM | –
39 | COc1cccc(N2C(=O)C3c4[nH]c5ccccc5c4C4CCCC4C3C2=O)c1 (configuration not stated) | > 10 µM | –
40 | CCOc1cc2c(C(=O)CC)c(O)ccc2o1 | > 100 µM | –
41 | CCNCCCn1c2c(c3ccc(Cl)cc3c1=O)C(=O)c1cc(OC)cnc1-2 | 3.03 µM | 1.08 µM
42 | Cc1cc(C)nc(SC2=C(Nc3ccc(C)c(Cl)c3)C(=O)N(Cc3ccccc3)C2=O)n1 | > 160 µM | > 160 µM
43 | CCN(CC)N1C(=O)[N+](CC)(CC)N=C1[O-] | > 100 µM | –
44 | CCCCCCCCCCCCCCCC(=O)OCC1OC(n2cc(F)c(=O)[nH]c2=O)C(N)C(O)C1O (configuration not stated) | 43.6 µM | –
45 | Cc1cc(F)ccc1S(=O)(=O)Nc1cc(-c2c(O)ccc3ccccc23)c(O)c2ccccc12 | 20 µM | 6.92 µM
46 | [Cl][Sn]([c]1ccccc1)([c]1ccccc1)[c]1ccccc1 | 0.715 µM and 0.217 µM and 0.153 µM | 0.262 µM and 0.101 µM and 0.033 µM

Row | SMILES | TGI | GI50
47 | O=C(N/N=C/C=C/c1ccc([N+](=O)[O-])o1)c1cc2ccccc2cc1O | 9.84 µM | 2.36 µM
48 | C=Cc1cncc(C#N)c1CCc1c(C#N)cncc1C=C | > 100 µM | > 100 µM
49 | CCOC(=O)CC[C@H](NC(=O)c1nc[nH]c1[N+](=O)[O-])C(=O)OCC | > 100 µM | –
50 | C[N+](C)(C)c1ccc(C(N)C(=O)O)cc1 (configuration not stated) | > 100 µM | –
51 | CC(=O)Oc1cc2c(cc1OC(C)=O)OCC(c1ccc(C)cc1)C2 (configuration not stated) | 107 µM | –
52 | C=C/C(C)=C\CC1[C@](C)(O)CC[C@H]2C(C)(C)C(=O)CC[C@]12C (some centres not stated) | > 100 µM | –
53 | C[C@H](NC(=O)C(Cc1ccccc1)(Cc1ccc(O)cn1)NC(=O)c1ccccc1)c1ccccc1 (some centres not stated) | 38.4 µM | –
54 | Cc1ccccc1OCC(O)CN1CCN(c2ccc(Cl)cc2)CC1 (configuration not stated) | 40 µM | 23.4 µM
55 | CC(C)=NN/C(=N\S(=O)(=O)c1ccc(Oc2cccc(Cl)c2C#N)cc1)Nc1ccc(Cl)cc1 | > 100 µM | –
56 | COc1cc2ccnc3c2c(c1OC)-c1coc(SC)c1-3 | > 100 µM | –
57 | CC(C)CNc1nc2ncnc(N)c2[nH]1 | > 100 µM | –
58 | C[C@@]12CCC(=O)c3coc(c31)C(=O)c1cc3c(cc12)C(=O)C=CC3=O | > 100 µM | > 1 µM
59 | COc1ccc(N2C(=O)CC(=O)N(C(=O)COc3ccc(OCC(=O)N4C(=O)CC(=O)N(c5ccc(OC)cc5)C4=S)cc3)C2=S)cc1 | 92.1 µM | –
60 | COc1ccc(CC(N)c2ccc(OC)cc2)cc1 (configuration not stated) | > 100 µM | –
61 | CCOc1ccc(N/C(=C(/C(Cl)=C(/Cl)N(CC)CC)[N+](=O)[O-])n2nnc3ccccc32)cc1 | > 100 µM | –
62 | Cc1cc([N+](=O)[O-])c(NS(=O)(=O)c2cccc(C(=O)O)c2)cc1-c1cccnc1 | > 100 µM | > 100 µM
63 | N#CC1(C#N)NC(c2cccs2)C(C#N)(C#N)NC1c1cccs1 (configuration not stated) | > 100 µM | –
64 | C/C(=N/NC(=S)N1CCCCC1)c1ccccc1O | > 31.6 µM | –
65 | COc1cc2ccc(=O)oc2cc1O | > 625 µM | –
66 | COC1CC(O[C@H]2CC[C@@]3(C)[C@H](CC[C@@H]4[C@@H]3CC[C@]3(C)[C@@H](C5=CC(=O)OC5)[C@@H](OC(C)=O)C[C@]43O)C2)OC(C)C1O (some centres not stated) | < 0.01 µM | < 0.01 µM
67 | COc1c(O)c(C=O)c2c(O)c(-c3c(C)cc4c(C(C)C)c(OC)c(O)c(C=O)c4c3O)c(C)cc2c1C(C)C | 17.4 µM | –
68 | O=S(=O)(/C=C/c1ccc(F)cc1)Cc1ccc(CS(=O)(=O)/C=C/c2ccc(F)cc2)cc1 | > 100 µM | –
69 | CC(=O)Nc1ccc(S(=O)(=O)N/N=C/CN2C(=O)c3ccccc3C2=O)cc1 | > 100 µM | –
